The values that follow come from the supplement of paper PMC8728848.

The other results are listed elsewhere or left out.

What all share (assay): glycan array binding signal (z-score within array); higher = stronger binding
Holding throughout (conditions): glycan notation: IUPAC condensed, linker removed; mutation: I144G

The target in assay [1] is Gal(b1-4)GlcNAc(b1-3)Gal(b1-4)GlcNAc(b1-3)Gal(b1-4)GlcNAc(b1-3)Gal(b1-4)GlcNAc(b1-2)Man(a1-3)[Gal(b1-4)GlcNAc(b1-3)Gal(b1-4)GlcNAc(b1-3)Gal(b1-4)GlcNAc(b1-3)Gal(b1-4)GlcNAc(b1-2)Man(a1-6)]Man(b1-4)GlcNAc(b1-4)GlcNAc. The gist of the method:
(§1)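 Glycan array data were curated from 3228 arrays in the Consortium for Functional Glycomics database and kept only where the protein sequence was available. Glycan names were converted to IUPAC-condensed notation, and columns mapping to the same glycan were averaged. The binding signal is a within-array Z-score, averaged across arrays of the same protein sequence at different concentrations or buffers and across linkers. Negative Z-scores can be read as non-binding.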

The target of assay [2] is Gal(b1-4)GlcNAc(b1-3)Gal(b1-4)GlcNAc(b1-3)Gal(b1-4)GlcNAc(b1-3)Gal(b1-4)GlcNAc(b1-2)Man(a1-3)[Gal(b1-4)GlcNAc(b1-3)Gal(b1-4)GlcNAc(b1-3)Gal(b1-4)GlcNAc(b1-3)Gal(b1-4)GlcNAc(b1-2)Man(a1-6)]Man(b1-4)GlcNAc(b1-4)[Fuc(a1-6)]GlcNAc. An outline of the steps:
as §1

Assay [3] has as its target Gal(b1-4)GlcNAc(b1-3)Gal(b1-4)GlcNAc(b1-3)Gal(b1-4)GlcNAc(b1-3)Gal(b1-4)GlcNAc(b1-2)[Gal(b1-4)GlcNAc(b1-3)Gal(b1-4)GlcNAc(b1-3)Gal(b1-4)GlcNAc(b1-3)Gal(b1-4)GlcNAc(b1-6)]Man(a1-6)[Gal(b1-4)GlcNAc(b1-3)Gal(b1-4)GlcNAc(b1-3)Gal(b1-4)GlcNAc(b1-3)Gal(b1-4)GlcNAc(b1-2)Man(a1-3)]Man(b1-4)GlcNAc(b1-4)[Fuc(a1-6)]GlcNAc. The gist of the method:
as §1

Assay [4] concerns the target Gal(b1-4)GlcNAc(b1-3)Gal(b1-4)GlcNAc(b1-3)Gal(b1-4)GlcNAc(b1-3)Gal(b1-4)GlcNAc(b1-3)Gal(b1-4)GlcNAc(b1-2)Man(a1-3)[Gal(b1-4)GlcNAc(b1-3)Gal(b1-4)GlcNAc(b1-3)Gal(b1-4)GlcNAc(b1-3)Gal(b1-4)GlcNAc(b1-3)Gal(b1-4)GlcNAc(b1-2)Man(a1-6)]Man(b1-4)GlcNAc(b1-4)GlcNAc. The gist of the method: as §1
For assay [5], the target named is Gal(b1-4)GlcNAc(b1-3)Gal(b1-4)GlcNAc(b1-3)Gal(b1-4)GlcNAc(b1-3)Gal(b1-4)GlcNAc(b1-3)Gal(b1-4)GlcNAc(b1-2)Man(a1-3)[Gal(b1-4)GlcNAc(b1-3)Gal(b1-4)GlcNAc(b1-3)Gal(b1-4)GlcNAc(b1-3)Gal(b1-4)GlcNAc(b1-3)Gal(b1-4)GlcNAc(b1-2)Man(a1-6)]Man(b1-4)GlcNAc(b1-4)[Fuc(a1-6)]GlcNAc. An outline of the steps: as §1
In assay [6] the target is Gal(b1-4)GlcNAc(b1-3)Gal(b1-4)GlcNAc(b1-3)Gal(b1-4)GlcNAc(b1-3)Gal(b1-4)GlcNAc(b1-3)Gal(b1-4)GlcNAc(b1-2)[Gal(b1-4)GlcNAc(b1-3)Gal(b1-4)GlcNAc(b1-3)Gal(b1-4)GlcNAc(b1-3)Gal(b1-4)GlcNAc(b1-3)Gal(b1-4)GlcNAc(b1-6)]Man(a1-6)[Gal(b1-4)GlcNAc(b1-3)Gal(b1-4)GlcNAc(b1-3)Gal(b1-4)GlcNAc(b1-3)Gal(b1-4)GlcNAc(b1-3)Gal(b1-4)GlcNAc(b1-2)Man(a1-3)]Man(b1-4)GlcNAc(b1-4)[Fuc(a1-6)]GlcNAc. The gist of the method:
as §1

For assay [7], the target named is Gal(b1-4)GlcNAc(b1-3)Gal(b1-4)GlcNAc(b1-3)Gal(b1-4)GlcNAc(b1-3)Gal(b1-4)GlcNAc(b1-3)Gal(b1-4)GlcNAc(b1-3)Gal(b1-4)GlcNAc(b1-2)Man(a1-3)[Gal(b1-4)GlcNAc(b1-3)Gal(b1-4)GlcNAc(b1-3)Gal(b1-4)GlcNAc(b1-3)Gal(b1-4)GlcNAc(b1-3)Gal(b1-4)GlcNAc(b1-3)Gal(b1-4)GlcNAc(b1-2)Man(a1-6)]Man(b1-4)GlcNAc(b1-4)GlcNAc. The gist of the method: as §1
In assay [8] the target is Gal(b1-4)GlcNAc(b1-3)Gal(b1-4)GlcNAc(b1-3)GalNAc. An outline of the steps: as §1
Assay [9] deals with Gal(b1-4)GlcNAc(b1-3)Gal(b1-4)GlcNAc(b1-3)[Gal(b1-4)GlcNAc(b1-3)Gal(b1-4)GlcNAc(b1-6)]GalNAc. The gist of the method:
as §1

For assay [10], the target named is Gal(b1-4)GlcNAc(b1-3)Gal(b1-4)GlcNAc(b1-6)[Gal(b1-3)]GalNAc. The gist of the method:
as §1

The target of assay [11] is Gal(b1-4)GlcNAc(b1-3)Gal(b1-4)[Fuc(a1-3)]GlcNAc(b1-3)Gal(b1-4)[Fuc(a1-3)]GlcNAc. An outline of the steps: as §1
Assay [12] has as its target Gal(b1-4)GlcNAc(b1-3)GalNAc. An outline of the steps:
as §1

Assay [13] concerns the target Gal(b1-4)GlcNAc(b1-3)[Fuc(a1-3)GlcNAc(b1-6)]Gal(b1-4)Glc. The gist of the method: as §1
Assay [14] addresses Gal(b1-4)GlcNAc(b1-3)[Gal(b1-4)GlcNAc(b1-6)]Gal(b1-4)GlcNAc. An outline of the steps: as §1
Assay [15] deals with Gal(b1-4)GlcNAc(b1-3)[GlcNAc(b1-6)]Gal(b1-4)GlcNAc. The gist of the method:
as §1

Assay [16] addresses Gal(b1-4)GlcNAc(b1-6)Gal(b1-4)GlcNAc. An outline of the steps:
as §1

The target in assay [17] is Gal(b1-4)GlcNAc(b1-6)GalNAc. The gist of the method:
as §1

Assay [18] has as its target Gal(b1-4)GlcNAc(b1-6)[Gal(b1-3)]GalNAc. An outline of the steps:
as §1

The target of assay [19] is Gal(b1-4)GlcNAc(b1-6)[Gal(b1-4)GlcNAc(b1-3)]GalNAc. An outline of the steps: as §1
The target of the next assay is Gal(b1-4)GlcNAc6P. An outline of the steps: as §1
For the next assay, the target named is Gal(b1-6)Gal. An outline of the steps:
as §1

For the next assay, the target named is Gal3S(b1-3)GalNAc. The gist of the method:
as §1

The target in another assay is Gal3S(b1-3)GlcNAc. The gist of the method: as §1

B1: rAAL-I144G (Agrocybe aegerita), Q6WY08 (protein)
chain: MQGVNIYNISAGTSVDLAAPVTTGDIVTFFSSALNLNAGAGNPNNTTLNLFAENGAYLLHIAFRLQENVIIFNSRQPDGPWLVEQRVSDVANQFAGIDGKAMVTVFDHGDKYQVVINEKTVIQYTKQISGLTLSLSYNATEETSGFSTVVEAVTYTGLALEHHHHHH
Turning to B1, the “glycan array binding signal (z-score)” value in [1] is -0.129; in [2], -0.063; in assay [3], -0.077; in assay [4], -0.082; in assay [5] it was -0.125; in assay [6], 0.008. In addition, the “glycan array binding signal (z-score)” value in assay [7] was -0.04; in assay [8], -0.054; in assay [9], -0.018; in [10], -0.066; in assay [11] it was -0.165; in assay [12], -0.144. The “glycan array binding signal (z-score)” value was -0.055 in assay [13]; -0.192 in [14]; -0.214 in assay [15]; -0.152 in [16]; -0.131 in [17]; -0.14 in assay [18]. Also, the “glycan array binding signal (z-score)” value is -0.177 in assay [19]; -0.201 with Gal(b1-4)GlcNAc6P; -0.193 in the assay with Gal(b1-6)Gal; 17.3 in the assay with Gal3S(b1-3)GalNAc; -0.151 with Gal3S(b1-3)GlcNAc.
